# Experimental data: PubChem BioAssay (NCATS)
# Several values for one entry are separate records, joined by “and”; a condition that tells them apart may be missing. Identical values can stand only once. Inconclusive results, whose numbers are uncertain, are shown with a selection of clear calls. For some of these results: Where the call is inconclusive, the potency comes from a doubtful curve fit. Activity calls are given as the source filed them. The call rests on the fitted dose curve; in most records, active means well fitted curve in the direction sought with a large enough effect; inconclusive means small, poorly fitted or top-dose-only effect, or another doubt; inactive means no such curve, though single readings can be large; an effect the other way counts as inactive or inconclusive.
# Key:
# HEK293 = assay: Cytotoxic Profiling of Annotated Libraries Using Quantitative High-Throughput Screening (AID 1296008); settings: Five cell lines viability, CellTiter-Glo ATP luminescence, 48-72 h; max response: stronger effect = lower value; further: nearly all actives have a fitted effect of over 60% in size
# Outline: (§1)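 Cytotoxicity was measured as CellTiter-Glo ATP luminescence, read after 10 min at room temperature. Compound treatment of the cells lasted 48 or 72 hr at 37 degrees Celsius in a qHTS format.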
# NIH3T3 = assay: as above; settings: Five cell lines viability, CellTiter-Glo ATP luminescence, 48-72 h; max response: stronger effect = lower value
# Outline: as §1
# UISO = assay: qHTS assay to identify novel small-molecules to repurpose for Merkel cell carcinoma treatment (AID 1296009); settings: MCC and control cell lines, CellTiter-Glo viability, 72 h; series mostly up to 46 µM; further: nearly all actives have a fitted effect of over 60% in size
# Outline: (§2)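 Cell viability, measured as CellTiter-Glo luminescence, was normalized between DMSO and no-cell wells. The cells had been exposed to 8- or 11-point compound dilutions for 72 hr at 37 degree celsius.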
# WaGa = assay: as above; settings: MCC and control cell lines, CellTiter-Glo viability, 72 h; series mostly up to 46 µM
# Outline: as §2
# CAOV3 = assay: Primary qHTS to identify gynecologic anti-cancer compounds using libraries of approved drugs and bioactive compounds (AID 1345084); settings: Gynecologic cancer cell panel viability, ATPlite luminescence, 48 h; series mostly up to 57.5 µM; further: nearly all actives have a fitted effect of over 55% in size
# Outline: (§3)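 Five-point cytotoxicity, 48 h drug exposure at 37 C, 5% CO2, on cells seeded 16 h beforehand. ATP content read by ATPlite luminescence.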
# Hek293T = assay: as above; settings: Gynecologic cancer cell panel viability, ATPlite luminescence, 48 h, control line for the selectivity index; series mostly up to 57.5 µM
# Outline: as §3
# MCC-13 = assay: qHTS assay to identify novel small-molecules to repurpose for Merkel cell carcinoma treatment (AID 1296009); settings: MCC and control cell lines, CellTiter-Glo viability, 72 h; series mostly up to 46 µM; further: nearly all actives have a fitted effect of over 60% in size
# Outline: as §2
# C33A = assay: Primary qHTS to identify gynecologic anti-cancer compounds using libraries of approved drugs and bioactive compounds (AID 1345084); settings: Gynecologic cancer cell panel viability, ATPlite luminescence, 48 h; series mostly up to 57.5 µM; further: nearly all actives have a fitted effect of over 55% in size
# Outline: as §3
# Es-2 = assay: as above; settings: Gynecologic cancer cell panel viability, ATPlite luminescence, 48 h; series mostly up to 57.5 µM
# Outline: as §3
# OV90 = assay: as above; settings: Gynecologic cancer cell panel viability, ATPlite luminescence, 48 h; series mostly up to 57.5 µM
# Outline: as §3
# PA-1 = assay: as above; settings: Gynecologic cancer cell panel viability, ATPlite luminescence, 48 h; series mostly up to 57.5 µM
# Outline: as §3
# SKOV3 = assay: as above; settings: Gynecologic cancer cell panel viability, ATPlite luminescence, 48 h; series mostly up to 57.5 µM
# Outline: as §3
# KB-3-1 = assay: Cytotoxic Profiling of Annotated Libraries Using Quantitative High-Throughput Screening (AID 1296008); settings: Five cell lines viability, CellTiter-Glo ATP luminescence, 48-72 h; max response: stronger effect = lower value; further: nearly all actives have a fitted effect of over 60% in size
# Outline: as §1
# MKL-2 = assay: qHTS assay to identify novel small-molecules to repurpose for Merkel cell carcinoma treatment (AID 1296009); settings: MCC and control cell lines, CellTiter-Glo viability, 72 h; activity change, negative = cytotoxicity: at 46 µM (top of the series); further: nearly all actives have a fitted effect of over 60% in size
# Outline: as §2
# CASKI = assay: Primary qHTS to identify gynecologic anti-cancer compounds using libraries of approved drugs and bioactive compounds (AID 1345084); settings: Gynecologic cancer cell panel viability, ATPlite luminescence, 48 h; series mostly up to 57.5 µM; further: nearly all actives have a fitted effect of over 55% in size
# Outline: as §3
# JEG-3 = assay: as above; settings: Gynecologic cancer cell panel viability, ATPlite luminescence, 48 h; series mostly up to 57.5 µM
# Outline: as §3
# MKL-1 = assay: qHTS assay to identify novel small-molecules to repurpose for Merkel cell carcinoma treatment (AID 1296009); settings: MCC and control cell lines, CellTiter-Glo viability, 72 h; series mostly up to 46 µM; further: nearly all actives have a fitted effect of over 60% in size
# Outline: as §2
# On the % scale 0 is the no-effect control and ±100 the full control effect; potency means the concentration at half of the fitted maximal effect; tags describe the fitted curve by direction and shape.
structure (smiles),measurement,setting,value
Cc1ccc(-n2nc(C(C)(C)C)cc2NC(=O)Nc2ccc(OCCN3CCOCC3)c3ccccc23)cc1,Potency,HEK293,"inconclusive: 37.2 µM [inhibitor, single point] and inconclusive: 21.1 µM [inhibitor, single point]"
same,Potency,NIH3T3,"inconclusive: 29.9 µM [inhibitor, single point]"
same,Potency,UISO,"inconclusive: 4.18 µM [inhibitor, full curve, poor fit]"
same,Potency,WaGa,"inconclusive: 15 µM [inhibitor, partial curve]"
same,Potency,CAOV3,"inconclusive: 1.78 µM [rising, partial curve, poor fit]"
same,Potency,Hek293T,inactive
CCCCC1C(=O)N(c2ccccc2)N(c2ccc(O)cc2)C1=O (centres undefined),Potency,HEK293,active: 4.73 µM
same,Potency,NIH3T3,active: 15 µM
same,Potency,MCC-13,active: 9.44 µM
same,Potency,UISO,active: 6.68 µM
same,Potency,WaGa,active: 2.99 µM
same,Potency,C33A,"inconclusive: 25.1 µM [cytotoxic, single point]"
same,Potency,CAOV3,"inconclusive: 31.6 µM [cytotoxic, single point]"
same,Potency,Es-2,"inconclusive: 39.8 µM [cytotoxic, single point]"
same,Potency,Hek293T,"inconclusive: 31.6 µM [cytotoxic, single point]"
same,Potency,OV90,"inconclusive: 39.8 µM [cytotoxic, single point]"
same,Potency,PA-1,"inconclusive: 17.8 µM [cytotoxic, single point]"
same,Potency,SKOV3,"inconclusive: 28.2 µM [cytotoxic, single point]"
CCN1CCC(n2cc(CNc3cc(Cl)c4ncc(C#N)c(Nc5ccc(F)c(Cl)c5)c4c3)nn2)CC1,Potency,HEK293,"inconclusive: 26.4 µM [inhibitor, single point] and inconclusive: 29.1 µM [inhibitor, single point]"
same,Potency,KB-3-1,"inconclusive: 33.2 µM [inhibitor, single point] and active: 18.4 µM"
same,Potency,MKL-2,"inconclusive: 18.7 µM [inhibitor, partial curve]"
same,Potency,CAOV3,"inconclusive: 28.2 µM [cytotoxic, single point]"
same,Potency,Es-2,inactive
same,Potency,SKOV3,"inconclusive: 39.8 µM [cytotoxic, single point]"
Cc1csc(NC(=O)c2sc3nc4c(c(C(F)(F)F)c3c2N)CCC4)n1,Potency,HEK293,"inconclusive: 18.4 µM [inhibitor, single point]"
same,max response,NIH3T3,inactive: -3.35% and inactive: -3.51%
same,Potency,C33A,"inconclusive: 14.1 µM [cytotoxic, partial curve, poor fit]"
same,Potency,CAOV3,active: 1.12 µM
same,Potency,CASKI,"inconclusive: 7.08 µM [cytotoxic, partial curve, poor fit]"
same,Potency,Hek293T,active: 3.55 µM
same,Potency,JEG-3,"inconclusive: 39.8 µM [cytotoxic, partial curve, poor fit]"
same,Potency,OV90,active: 12.6 µM
same,Potency,PA-1,"inconclusive: 1 µM [cytotoxic, full curve, poor fit]"
same,Potency,SKOV3,"inconclusive: 8.91 µM [cytotoxic, full curve, poor fit]"
O=C(O)c1cccc(-c2noc(-c3ccccc3F)n2)c1,Potency,HEK293,"inconclusive: 29.9 µM [inhibitor, single point] and inconclusive: 37.2 µM [inhibitor, single point]"
same,Potency,KB-3-1,"inconclusive: 29.1 µM [inhibitor, single point]"
same,Potency,NIH3T3,"inconclusive: 26.6 µM [inhibitor, single point]"
same,Potency,MKL-1,inactive
same,Potency,WaGa,inactive
same,Potency,C33A,active: 11.2 µM and active: 12.6 µM
same,Potency,CAOV3,active: 10 µM and active: 11.2 µM
same,Potency,CASKI,active: 11.2 µM and active: 14.1 µM
same,Potency,Es-2,active: 3.16 µM and active: 6.31 µM
same,Potency,Hek293T,active: 4.47 µM and active: 7.08 µM
same,Potency,JEG-3,active: 7.94 µM and active: 11.2 µM
same,Potency,OV90,active: 12.6 µM
same,Potency,PA-1,active: 3.55 µM and active: 7.94 µM
CCOc1cc(NC(C)=O)ccc1C(=O)OC,max response,HEK293,inactive: 0.16%
same,Potency,MKL-2,inactive
